Reference: PubChem BioAssay AID1159614 (National Center for Advancing Translational Sciences (NCATS), 2016)
The campaign covered roughly 45,000 compounds. About 65 (0.1%) were called active. Calls follow the shape of the dose curve; as a rule, active = well fitted activation curve with a large enough effect; inconclusive = small, poorly fitted or top-dose-only effect; inactive = no such curve, though single readings can be large or run the other way. The list shows a part of the results.

target: Galactocerebrosidase (Homo sapiens) (UniProt P54803); assay: A Novel Cell-Based Assay to Identify Small Molecules for B -Galactocerebrosidase; conditions: 145M-Twi-hGALC-G270D cells (Twitcher mouse brain line with human GALC G270D), HMU-beta-Gal fluorescence, 48 h; series mostly up to 57.5 µM; activation: at the top concentration; also: 0% is about no effect; nearly all actives have a fitted effect of over 65% in size
Procedure, shortened: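 Fluorescence readout: HMU-β-gal cleavage by mutant GALC (0.1 mM final, citrate/phosphate pH 5.2 with 1 mg/mL taurocholate), stopped with carbonate/bicarbonate plus Triton X-100. Cells: murine Twitcher 145M-Twi expressing human G270D GALC; qHTS for activators.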

Chain of UniProt P54803 (P54803 whole entry, looked up): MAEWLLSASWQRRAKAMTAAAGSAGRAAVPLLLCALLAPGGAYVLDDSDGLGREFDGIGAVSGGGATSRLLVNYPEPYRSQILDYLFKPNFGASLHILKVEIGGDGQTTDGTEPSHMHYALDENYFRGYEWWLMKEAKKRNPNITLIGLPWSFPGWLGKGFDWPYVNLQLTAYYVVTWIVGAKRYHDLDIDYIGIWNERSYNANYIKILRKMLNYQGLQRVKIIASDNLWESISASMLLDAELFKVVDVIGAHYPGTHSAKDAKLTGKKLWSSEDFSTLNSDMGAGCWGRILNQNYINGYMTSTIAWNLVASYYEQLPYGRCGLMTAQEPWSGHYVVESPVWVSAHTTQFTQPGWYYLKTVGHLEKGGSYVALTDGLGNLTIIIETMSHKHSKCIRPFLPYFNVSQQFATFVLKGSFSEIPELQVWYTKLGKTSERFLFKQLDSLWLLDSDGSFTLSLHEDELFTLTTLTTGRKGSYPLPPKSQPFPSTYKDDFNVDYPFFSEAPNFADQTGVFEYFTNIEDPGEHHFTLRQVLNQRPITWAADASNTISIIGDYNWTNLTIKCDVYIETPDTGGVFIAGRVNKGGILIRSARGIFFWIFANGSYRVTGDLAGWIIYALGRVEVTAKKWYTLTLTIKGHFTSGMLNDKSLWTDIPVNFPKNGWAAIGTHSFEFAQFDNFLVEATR

Question: With `O=C(CCS(=O)(=O)c1cc(Br)cc2c1N(C(=O)C1CC1)CC2)N1CCN(c2ccccc2)CC1` as the molecule, how does the “activation” value read?
Answer: inactive: -14.1%

Question: `Cc1ccccc1Cn1nnc2c(=O)[nH]c(C3CCCN(C(=O)c4ccc(C(C)(C)C)cc4)C3)nc21` (stereo not given) was tested. Which “activation” value did it give?
Answer: inactive: -15.2%

Question: How did the “activation” value turn out when `O=C(c1ccc2c(c1)N(Cc1cccc(Cl)c1)C(=O)c1ccccc1S2(=O)=O)N1CCCC1` was run?
Answer: inactive: -21.3%

Question: `CCOc1ccc(C2CC(=O)c3c([nH]c(C(=O)OCCOc4ccccc4)c3C)C2)cc1` (stereo not given) was tested. Which “activation” value did it give?
Answer: inactive: -31.9%

Question: `CCOC(=O)C1CCCN(C(=O)c2ccccc2NC(=O)c2nsc3ccccc23)C1` (stereo not given) was tested. Which “activation” value did it give?
Answer: inactive: -36.6%

Question: For `Cc1nnc2c3ccccc3nc(N3CCN(c4ccccc4)CC3)n12`, which “activation” value is on record?
Answer: inactive: -5.88%

Question: With `CCOCCCNC(=O)C1CCCN(c2ncnc3onc(C)c23)C1` (stereo not given) as the molecule, how does the “activation” value read?
Answer: inactive: -6.01%

Question: With `O=C(CCc1ccccc1)N(Cc1cccnc1)c1nc2ccc(F)cc2s1` as the molecule, how does the “activation” value read?
Answer: inactive: -8.03%

Question: For `O=C(Cn1cc(SCc2ccc(F)cc2)c2ccccc21)N1CCCCCC1`, which “activation” value is on record?
Answer: inactive: -15.2%

Question: With `N#Cc1c(-c2ccccc2)cc(-c2ccccc2)nc1SCC(O)CS(=O)(=O)Cc1ccccc1` (stereo not given) as the molecule, how does the “activation” value read?
Answer: inactive: -19.7%

Question: `CCN(CC)C(=O)CSc1nc2c(c(=O)n(C)c(=O)n2C)n1Cc1ccccc1` was tested. Which “activation” value did it give?
Answer: inactive: -8.07%

Question: Which “activation” value does the source give for `CCOc1ccc(NC(=O)c2cnn(-c3ccccc3)c2-n2cccc2)cc1` here?
Answer: inactive: -11.7%

Question: `CCCN(Cc1cccs1)C(=O)Nc1cc(C)cc(C)c1` was tested. Which “activation” value did it give?
Answer: inactive: -5.79%

Question: How did the “activation” value turn out when `Cc1nn(C)c2c1c(-c1ccccc1)cc(=O)n2Cc1ccc(F)cc1Cl` was run?
Answer: inactive: -4.94%

Question: With `CCN(CC)C(=O)Cn1c(=O)n(-c2ccc(Cl)cc2)c(=O)c2c3c(sc21)CCCCC3` as the molecule, how does the “activation” value read?
Answer: inactive: 0.388%

Question: For `CCOc1ccc(CCNC(=O)CCn2c(=O)c3cccn3c3ccc(F)cc32)cc1OCC`, which “activation” value is on record?
Answer: inactive: -10.3%

Question: `COc1ccc(-c2nc3ccccc3o2)cc1NC(=O)c1cccc2c(Cl)cccc12` was tested. Which “activation” value did it give?
Answer: inactive: -4.13%

Question: With `COc1ccc(NC(=O)CC2C(=O)N(c3ccc(OC)cc3)C(=O)N2Cc2ccc(OC)c(OC)c2)cc1` (stereo not given) as the molecule, how does the “activation” value read?
Answer: inactive: -20.2%

Question: For `CCOc1ccc(N2CC(NC(=O)Cc3cccs3)CC2=O)cc1` (stereo not given), which “activation” value is on record?
Answer: inactive: 4.03%

Question: How did the “activation” value turn out when `CN(Cc1ccccc1)c1ccc2cc(S(=O)(=O)N3CCCCC3)ccc2n1` was run?
Answer: inactive: -6.68%

Question: `Cc1ccc(C)c(CSc2cn(CC(=O)N3CCCC3)c3ccccc23)c1` was tested. Which “activation” value did it give?
Answer: inactive: -5.2%

Question: For `COc1ccc2cc(-c3nc(-c4ccc(N(C)C)cc4)no3)c(=O)oc2c1`, which “activation” value is on record?
Answer: inactive: -11%

Question: Which “activation” value does the source give for `CCOc1ccc(NC(=O)CCc2c(C)nc3c4c(C)cc(C)nc4nn3c2C)cc1` here?
Answer: inactive: -4.3%

Question: Which “activation” value does the source give for `Cc1c(C(=O)N(C)Cc2ccccc2)sc2nc(-c3ccc(F)cc3)cn12` here?
Answer: inactive: -14.4%

Question: How did the “activation” value turn out when `CC(NCc1ccc2c(c1)n(C)c(=O)n2C)c1ccccc1` (stereo not given) was run?
Answer: inactive: -34.7%

Question: Which “activation” value does the source give for `COc1cc(NC(=O)CSc2cc(=O)n(C)c3ccccc23)cc(OC)c1OC` here?
Answer: inactive: -25.9%

Question: How did the “activation” value turn out when `COc1ccc(N2CCN(C(=O)c3ccc4c(c3)CCN4S(=O)(=O)c3ccccc3)CC2)cc1` was run?
Answer: inactive: -5.71%

Question: For `CCC12CN3CC(CC)(CN(C1)C3c1c[nH]c3ccccc13)C2=O` (stereo not given), which “activation” value is on record?
Answer: inactive: -2.26%

Question: How did the “activation” value turn out when `Cc1noc2ncnc(NCCc3ccccc3)c12` was run?
Answer: inactive: -12.1%

Question: How did the “activation” value turn out when `COCCCNC(=O)C1CCN(Cc2cc3ccccc3n2Cc2cccc(Cl)c2)CC1` was run?
Answer: inactive: 4.34%

Question: How did the “activation” value turn out when `Cc1ccc(-c2cn3c(n2)sc2cc(C(=O)NC4CCCCCC4)ccc23)cc1` was run?
Answer: inactive: -7.49%

Question: Which “activation” value does the source give for `Cc1cc(C)n2nc(CNC(=O)c3cccc(N(C)C)c3)nc2n1` here?
Answer: inactive: 0.975%

Question: For `COc1ccc(Br)cc1CNC(=O)C1CCN(c2nnc(-n3cccc3CNc3ccc(C)cc3)s2)CC1`, which “activation” value is on record?
Answer: inactive: 0.362%

Question: Which “activation” value does the source give for `CSc1nn(CC(=O)Nc2ccc(C)cc2C)c(N)c1S(=O)(=O)c1ccc(Cl)cc1` here?
Answer: inactive: -9.35%

Question: How did the “activation” value turn out when `CCn1cc(C(=O)N(C)c2cc(C)ccc2C)c2cc(OC)c(OC)cc2c1=O` was run?
Answer: inactive: -9.42%

Question: With `O=S(=O)(Nc1nc2n(n1)C(c1ccc(F)cc1)C=C(c1ccc(Cl)cc1)N2)c1ccccc1` (stereo not given) as the molecule, how does the “activation” value read?
Answer: inactive: -12.2%

Question: With `COc1ccc(NS(=O)(=O)c2ccc3c(c2)CC(C)N3C(=O)C2CCC2)cc1OC` (stereo not given) as the molecule, how does the “activation” value read?
Answer: inactive: -15.9%

Question: Which “activation” value does the source give for `Cc1ccc(NS(=O)(=O)c2ccc3nc(-c4ccccc4)[nH]c3c2)cc1Cl` here?
Answer: inactive: 7.81%

Question: For `CCOc1ccccc1NC(=O)C1CCCN(S(=O)(=O)c2cccs2)C1` (stereo not given), which “activation” value is on record?
Answer: inactive: -13.3%

Question: How did the “activation” value turn out when `COc1cc2c(C(=O)N3CCN(c4ccc(F)cc4)CC3)cn(CC(C)C)c(=O)c2cc1OC` was run?
Answer: inactive: -2.59%
